Test results from PMC12563811.
Results are given in words; binding and its absence hold for the method and conditions named. In cells and extracts the contact can be indirect. Some binding calls cover weakened binding; strength is not graded here.

Columns and labels:
[1] = molecular target: T1, transcobalamin 1 (TCN1), in 293T cells (UniProt P20061); assay: co-IP; in 293T cells; TCN1 pulldown and reciprocal STAT4 pulldown, Western blot
T1 sequence: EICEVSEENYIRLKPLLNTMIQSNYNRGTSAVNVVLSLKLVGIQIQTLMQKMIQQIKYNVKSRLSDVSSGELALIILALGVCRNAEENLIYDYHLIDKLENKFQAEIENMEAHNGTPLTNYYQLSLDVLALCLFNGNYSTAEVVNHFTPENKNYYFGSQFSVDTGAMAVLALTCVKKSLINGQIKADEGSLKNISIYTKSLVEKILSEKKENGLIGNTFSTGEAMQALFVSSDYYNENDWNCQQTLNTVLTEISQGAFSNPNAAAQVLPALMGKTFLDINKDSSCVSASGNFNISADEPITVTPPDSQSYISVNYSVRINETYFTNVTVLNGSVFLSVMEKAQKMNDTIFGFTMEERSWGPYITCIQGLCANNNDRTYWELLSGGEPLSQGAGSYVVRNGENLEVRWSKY

[2] = molecular target: T2, signal transducer and activator of transcription 4 (STAT4), in 293T cells (UniProt Q14765); assay: as above
T2 sequence: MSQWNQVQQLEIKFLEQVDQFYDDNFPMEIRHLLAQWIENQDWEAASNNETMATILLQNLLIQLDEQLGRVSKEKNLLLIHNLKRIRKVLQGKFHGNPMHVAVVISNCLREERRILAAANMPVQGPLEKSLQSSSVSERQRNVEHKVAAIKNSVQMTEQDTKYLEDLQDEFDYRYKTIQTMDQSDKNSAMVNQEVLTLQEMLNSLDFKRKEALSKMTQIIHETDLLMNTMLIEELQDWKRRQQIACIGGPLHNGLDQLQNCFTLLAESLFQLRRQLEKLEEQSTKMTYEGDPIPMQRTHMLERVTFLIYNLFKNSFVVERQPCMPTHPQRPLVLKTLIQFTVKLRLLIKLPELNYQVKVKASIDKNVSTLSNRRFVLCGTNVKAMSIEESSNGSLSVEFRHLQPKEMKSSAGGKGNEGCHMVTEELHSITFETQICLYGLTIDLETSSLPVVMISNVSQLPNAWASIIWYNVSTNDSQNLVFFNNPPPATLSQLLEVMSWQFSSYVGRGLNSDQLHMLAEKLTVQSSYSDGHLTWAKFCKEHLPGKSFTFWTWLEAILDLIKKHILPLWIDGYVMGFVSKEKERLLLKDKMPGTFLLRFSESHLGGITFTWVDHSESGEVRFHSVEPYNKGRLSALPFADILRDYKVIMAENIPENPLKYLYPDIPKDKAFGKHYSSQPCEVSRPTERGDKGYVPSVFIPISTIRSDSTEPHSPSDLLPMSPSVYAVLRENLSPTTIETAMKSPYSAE

[3] = molecular target: T3, transcobalamin 1 (TCN1), in PANC-1 cells (UniProt P20061); assay: co-IP; in PANC-1 cells; both directions, Western blot
T3 sequence: T1 sequence

[4] = molecular target: T4, signal transducer and activator of transcription 4 (STAT4), in PANC-1 cells (UniProt Q14765); assay: as above
T4 sequence: T2 sequence

[5] = molecular target: T5, signal transducer and activator of transcription 4 (STAT4), in the co-IP with the TCN1 truncation mutants (UniProt Q14765); assay: co-IP; three TCN1 truncation mutants with STAT4, Western blot; cell line and bait not stated
T5 sequence: T2 sequence

B1: signal transducer and activator of transcription 4 (STAT4), in 293T cells (protein, UniProt Q14765 1-748)
chain: T2 sequence
Q: B1 was tested. Which binding [1] did it give?
A: binds

B2: transcobalamin 1 (TCN1), in 293T cells (protein, UniProt P20061 24-433)
chain: T1 sequence
Q: Which binding [2] does the source give for B2 here?
A: binds

B3: signal transducer and activator of transcription 4 (STAT4), in PANC-1 cells (protein, UniProt Q14765 1-748)
chain: T2 sequence
Q: Which binding [3] does the source give for B3 here?
A: binds

B4: transcobalamin 1 (TCN1), in PANC-1 cells (protein, UniProt P20061 24-433)
chain: T1 sequence
Q: For B4, which binding [4] is on record?
A: binds

B5: TCN1 truncation mutant: deletion of the N-terminal α-domain (24–310 aa) (domain or fragment, UniProt P20061)
chain: ASGNFNISADEPITVTPPDSQSYISVNYSVRINETYFTNVTVLNGSVFLSVMEKAQKMNDTIFGFTMEERSWGPYITCIQGLCANNNDRTYWELLSGGEPLSQGAGSYVVRNGENLEVRWSKY
Q: How did the binding [5] turn out when B5 was run?
A: binds

B6: TCN1 truncation mutant: deletion of the flexible linker region (311–332 aa) (domain or fragment, UniProt P20061)
chain: EICEVSEENYIRLKPLLNTMIQSNYNRGTSAVNVVLSLKLVGIQIQTLMQKMIQQIKYNVKSRLSDVSSGELALIILALGVCRNAEENLIYDYHLIDKLENKFQAEIENMEAHNGTPLTNYYQLSLDVLALCLFNGNYSTAEVVNHFTPENKNYYFGSQFSVDTGAMAVLALTCVKKSLINGQIKADEGSLKNISIYTKSLVEKILSEKKENGLIGNTFSTGEAMQALFVSSDYYNENDWNCQQTLNTVLTEISQGAFSNPNAAAQVLPALMGKTFLDINKDSSCVSYISVNYSVRINETYFTNVTVLNGSVFLSVMEKAQKMNDTIFGFTMEERSWGPYITCIQGLCANNNDRTYWELLSGGEPLSQGAGSYVVRNGENLEVRWSKY
Q: B6 was tested. Which binding [5] did it give?
A: binds

B7: TCN1 truncation mutant: deletion of the C-terminal β-domain (333–433 aa) (domain or fragment, UniProt P20061 24-332)
chain: EICEVSEENYIRLKPLLNTMIQSNYNRGTSAVNVVLSLKLVGIQIQTLMQKMIQQIKYNVKSRLSDVSSGELALIILALGVCRNAEENLIYDYHLIDKLENKFQAEIENMEAHNGTPLTNYYQLSLDVLALCLFNGNYSTAEVVNHFTPENKNYYFGSQFSVDTGAMAVLALTCVKKSLINGQIKADEGSLKNISIYTKSLVEKILSEKKENGLIGNTFSTGEAMQALFVSSDYYNENDWNCQQTLNTVLTEISQGAFSNPNAAAQVLPALMGKTFLDINKDSSCVSASGNFNISADEPITVTPPDSQS
Q: With B7 as the binder, how does the binding [5] read?
A: no binding
